Some of the results follow.

For assay [1], the system named is HSkMC (human skeletal muscle cells). Description: cytotoxicity call (relative viability < 0.9). The following applies: 10 µM.
Assay [2] relates to S. aureus RN4220. In words: growth inhibition call (relative growth <= 0.2). The following applies: 50 µM.

As to `Cc1ccc(S(=O)(=O)Nc2ccc3c(c2)C(=O)N([C@@H](C)CO)C[C@@H](C)[C@@H](CN(C)Cc2ccc(C(F)(F)F)cc2)OCCCC[C@H](C)O3)cc1`, in assay [1], the cytotoxicity call was “inactive”. Further, the growth inhibition call in assay [2] was “inactive”.

In the case of `C[C@H]1CN([C@@H](C)CO)C(=O)c2cccc(NC(=O)c3nc4ccccc4s3)c2O[C@@H]1CN(C)CC1CCCCC1`, the cytotoxicity call in assay [1] was “inactive”. In assay [2], the growth inhibition call was “inactive”.

On to `COc1cc(C=CC(=O)O)ccc1O`, for which the cytotoxicity call in assay [1] is “inactive”. Besides, the growth inhibition call in assay [2] is “inactive”.

Consider `C[C@@H]1CCCCO[C@H](CN(C)CC2CCCCC2)[C@H](C)CN([C@@H](C)CO)C(=O)c2cc(NC(=O)Cc3ccccc3)ccc2O1`, for which the cytotoxicity call in assay [1] was “inactive”. Moreover, the growth inhibition call in assay [2] was “inactive”.

In the case of `C[C@@H]1CN([C@@H](C)CO)S(=O)(=O)c2ccc(C#Cc3ccc(F)cc3)cc2O[C@@H]1CN(C)C(=O)CN(C)C`, the cytotoxicity call in assay [1] was “inactive”. In addition, the growth inhibition call in assay [2] is “inactive”.

Take `CC(C)NC(=O)N(C)C[C@H]1Oc2ccc(NS(=O)(=O)c3cccs3)cc2C(=O)N([C@H](C)CO)C[C@@H]1C`: the cytotoxicity call in assay [1] was “inactive”. The growth inhibition call in assay [2] is “inactive”.

`Cc1ccc(S(=O)(=O)Nc2ccc3c(c2)C(=O)N([C@@H](C)CO)C[C@H](C)[C@H](CN(C)CC2CCCCC2)OCCCC[C@@H](C)O3)cc1`: the cytotoxicity call in assay [1] is “inactive”. In addition, in assay [2], the growth inhibition call is “inactive”.

`C[C@@H]1CCCCO[C@H](CN(C)S(=O)(=O)c2ccc(Cl)cc2)[C@H](C)CN([C@@H](C)CO)C(=O)c2cc(NC(=O)Nc3ccc(F)cc3)ccc2O1`: the cytotoxicity call in assay [1] was “inactive”. Further, the growth inhibition call in assay [2] was “inactive”.

As for `C[C@H](CO)N1C[C@H](C)[C@@H](CN(C)C(=O)Nc2ccc(C(F)(F)F)cc2)OCCCC[C@H](C)Oc2ccc(NS(=O)(=O)c3ccc(F)cc3)cc2C1=O`, the cytotoxicity call in assay [1] is “inactive”. Moreover, the growth inhibition call in assay [2] was “inactive”.

Consider `Cc1ccc(S(=O)(=O)N(C)C[C@H]2OCCCC[C@@H](C)Oc3ccc(NC(=O)Nc4ccc(C(F)(F)F)cc4)cc3C(=O)N([C@@H](C)CO)C[C@H]2C)cc1`, for which, in assay [1], the cytotoxicity call is “inactive”. Moreover, in assay [2], the growth inhibition call was “inactive”.

As for `C[C@H]1CN([C@@H](C)CO)C(=O)c2ccccc2-c2ccccc2CO[C@H]1CN(C)C(=O)Nc1cccc(C(F)(F)F)c1`, the cytotoxicity call in assay [1] is “inactive”. For the same molecule, the growth inhibition call in assay [2] was “inactive”.

With `Cc1cccc(Oc2ccc(NC(=O)C3CCC(C)CC3)cc2)c1` (stereo not given), the cytotoxicity call in assay [1] was “inactive”. The growth inhibition call in assay [2] is “inactive”.

For the molecule `C[C@H](CO)N1C[C@H](C)[C@@H](CN(C)S(=O)(=O)c2cn(C)cn2)Oc2ncc(/C=C/c3ccccc3)cc2C1=O`, in assay [1], the cytotoxicity call is “inactive”. In assay [2], the growth inhibition call was “inactive”.

In the case of `COc1ccc(CN(C)C[C@@H]2OCCCC[C@@H](C)Oc3ccc(NS(=O)(=O)c4ccc(Cl)cc4)cc3C(=O)N([C@H](C)CO)C[C@H]2C)cc1`, the cytotoxicity call in assay [1] is “inactive”. Moreover, the growth inhibition call in assay [2] was “inactive”.

As to `Cc1noc(C)c1S(=O)(=O)Nc1ccc2c(c1)C(=O)N([C@H](C)CO)C[C@@H](C)[C@H](CN(C)CC1CC1)O2`, in assay [1], the cytotoxicity call is “inactive”. For the same molecule, the growth inhibition call in assay [2] is “inactive”.

`C[C@@H]1CN([C@@H](C)CO)C(=O)Cc2cc(NC(=O)Nc3ccc(C(F)(F)F)cc3)ccc2O[C@H]1CN(C)S(C)(=O)=O`: the cytotoxicity call in assay [1] was “inactive”. Moreover, the growth inhibition call in assay [2] was “inactive”.

For the molecule `C[C@H]1CN([C@@H](C)CO)C(=O)c2cc(NC(=O)Nc3ccc(F)cc3)ccc2O[C@H]1CN(C)Cc1ccc(C(F)(F)F)cc1`, the cytotoxicity call in assay [1] was “inactive”. In addition, in assay [2], the growth inhibition call is “inactive”.

For the molecule `C[C@H]1CN([C@@H](C)CO)C(=O)c2cc(N(C)C)ccc2O[C@H]1CN(C)S(=O)(=O)c1ccc(Cl)cc1`, the cytotoxicity call in assay [1] is “inactive”. Moreover, in assay [2], the growth inhibition call was “inactive”.

Turning to `C[C@@H]1CN([C@@H](C)CO)C(=O)c2ccccc2-c2ccccc2CO[C@@H]1CN(C)C(=O)c1cc(Cl)cc(Cl)c1`, the cytotoxicity call in assay [1] was “inactive”. Further, the growth inhibition call in assay [2] is “inactive”.

Turning to `C[C@@H]1CCCCO[C@@H](CN(C)C(=O)Cc2ccccc2)[C@H](C)CN([C@@H](C)CO)C(=O)c2cc(NS(=O)(=O)c3ccc(F)cc3)ccc2O1`, the cytotoxicity call in assay [1] is “inactive”. Besides, the growth inhibition call in assay [2] was “inactive”.

For `C[C@H](CO)N1C[C@H](C)[C@@H](CN(C)Cc2ccc(-c3ccccc3)cc2)Oc2ccc(NC(=O)CCCCCC(=O)Nc3ccccc3N)cc2CC1=O`, in assay [1], the cytotoxicity call is “inactive”. In assay [2], the growth inhibition call is “inactive”.

On to `C[C@@H]1CCCCO[C@@H](CN(C)Cc2ccc(C(=O)O)cc2)[C@H](C)CN([C@@H](C)CO)C(=O)c2cc(NS(=O)(=O)c3ccc(F)cc3)ccc2O1`, for which the cytotoxicity call in assay [1] is “inactive”. Also, in assay [2], the growth inhibition call is “inactive”.

Take `COc1ccc(NC(=O)N(C)C[C@H]2Oc3c(NS(=O)(=O)c4cn(C)cn4)cccc3C(=O)N([C@@H](C)CO)C[C@H]2C)cc1`: the cytotoxicity call in assay [1] was “inactive”. For the same molecule, the growth inhibition call in assay [2] is “inactive”.

On to `Cc1noc(C)c1S(=O)(=O)N(C)C[C@@H]1Oc2ccc(NS(=O)(=O)c3cn(C)cn3)cc2CC(=O)N([C@@H](C)CO)C[C@H]1C`, for which the cytotoxicity call in assay [1] was “inactive”. Also, the growth inhibition call in assay [2] was “inactive”.

Take `C[C@@H]1CN([C@H](C)CO)C(=O)Cc2cc(NC(=O)Cc3ccccc3)ccc2O[C@@H]1CN(C)Cc1ccc(C(F)(F)F)cc1`: the cytotoxicity call in assay [1] was “inactive”. The growth inhibition call in assay [2] was “inactive”.

Consider `C[C@H](CO)N1C[C@H](C)[C@@H](CN(C)C(=O)C2CCOCC2)Oc2cc(C#Cc3ccncc3)ccc2S1(=O)=O`, for which the cytotoxicity call in assay [1] was “inactive”. In addition, the growth inhibition call in assay [2] is “inactive”.

In the case of `COCCNC(=O)C[C@@H]1CC[C@@H]2[C@@H](COc3ccc(NC(=O)Nc4cccc(F)c4)cc3C(=O)N2C)O1`, the cytotoxicity call in assay [1] was “inactive”. The growth inhibition call in assay [2] is “inactive”.

As to `C[C@H]1CN([C@@H](C)CO)C(=O)c2cccc(NC(=O)Nc3ccc4c(c3)OCO4)c2O[C@@H]1CN(C)Cc1ccc(-c2ccccc2)cc1`, the cytotoxicity call in assay [1] was “inactive”. Moreover, the growth inhibition call in assay [2] is “inactive”.

Regarding `C[C@@H]1CN([C@H](C)CO)C(=O)c2cccc(NC(=O)c3ccncc3)c2O[C@H]1CN(C)Cc1ccncc1`, in assay [1], the cytotoxicity call was “inactive”. For the same molecule, in assay [2], the growth inhibition call was “inactive”.

For the molecule `COc1ccc(NC(=O)N(C)C[C@H]2OCc3cnnn3CCCC(=O)N([C@H](C)CO)C[C@H]2C)c(OC)c1`, in assay [1], the cytotoxicity call is “inactive”. Besides, in assay [2], the growth inhibition call was “inactive”.

The values are drawn from the antibiotic and cytotoxicity screens of Wong et al. (2023).
